The structures appear in SMILES notation. About 14,000 (4.5%) of roughly 310,000 compounds showed an effect of 50% or more. The effect is printed as a negative number. This is one part of the list.
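Further: peak tail current of the secondary pulse compared with the same well before compound.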

The assay deals with human ether-à-go-go-related gene (hERG) potassium channel (human, UniProt Q12809). Put plainly: primary screen, population patch clamp on CHO cells stably expressing hERG.
human ether-à-go-go-related gene (hERG) potassium channel, sequence (Q12809 whole entry, looked up): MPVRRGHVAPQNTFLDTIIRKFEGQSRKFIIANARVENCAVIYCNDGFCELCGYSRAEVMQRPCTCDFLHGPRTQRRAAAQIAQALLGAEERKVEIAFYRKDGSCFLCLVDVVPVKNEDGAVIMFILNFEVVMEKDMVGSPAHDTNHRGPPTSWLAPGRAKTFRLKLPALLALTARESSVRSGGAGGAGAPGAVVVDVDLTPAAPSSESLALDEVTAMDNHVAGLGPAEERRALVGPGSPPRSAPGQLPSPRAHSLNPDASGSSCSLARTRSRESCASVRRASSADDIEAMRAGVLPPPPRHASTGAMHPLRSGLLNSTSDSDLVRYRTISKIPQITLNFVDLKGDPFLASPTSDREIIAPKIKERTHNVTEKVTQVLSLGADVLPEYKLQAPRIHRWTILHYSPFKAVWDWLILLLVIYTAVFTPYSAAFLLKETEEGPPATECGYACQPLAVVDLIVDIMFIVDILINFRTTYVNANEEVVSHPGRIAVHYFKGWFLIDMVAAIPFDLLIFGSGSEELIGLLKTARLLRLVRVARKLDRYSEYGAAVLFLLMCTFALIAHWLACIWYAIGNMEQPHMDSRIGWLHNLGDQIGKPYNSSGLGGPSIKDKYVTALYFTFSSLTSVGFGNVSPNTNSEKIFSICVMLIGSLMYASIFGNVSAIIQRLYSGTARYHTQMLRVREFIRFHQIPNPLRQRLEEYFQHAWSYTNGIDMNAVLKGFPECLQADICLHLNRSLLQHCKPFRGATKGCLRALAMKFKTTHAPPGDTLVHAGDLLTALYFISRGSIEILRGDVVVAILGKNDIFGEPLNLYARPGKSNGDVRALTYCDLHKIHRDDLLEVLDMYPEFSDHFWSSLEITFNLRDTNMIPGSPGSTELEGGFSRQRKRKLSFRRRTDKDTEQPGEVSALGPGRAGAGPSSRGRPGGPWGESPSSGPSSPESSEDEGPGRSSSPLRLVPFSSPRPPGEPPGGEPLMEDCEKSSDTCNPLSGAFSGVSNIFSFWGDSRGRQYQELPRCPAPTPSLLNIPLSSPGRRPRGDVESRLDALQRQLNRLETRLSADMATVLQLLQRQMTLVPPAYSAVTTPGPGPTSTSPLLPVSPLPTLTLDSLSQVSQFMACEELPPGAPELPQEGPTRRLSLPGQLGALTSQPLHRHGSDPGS
Turning to `CCC(C(=O)N1CCOCC1)n1c(C(=O)OC)cc2occc21` (stereo not drawn), the “hERG current change (%, negative = inhibition) at 10uM” value amounted to 7.13%. With `Cc1cc(C)n(-c2nc(NCCCN(C)C)c3c4c(sc3n2)COC(C)(C)C4)n1`, the “hERG current change (%, negative = inhibition) at 10uM” value is listed as -14.1%. The same measure for `CC1Oc2ccccc2N(CC(=O)NCc2ccc3c(c2)OCO3)C1=O` (stereo not drawn): 13.5%; for `CCOC(=O)CC(=O)CSc1nc(-c2cccnc2)cc(C)c1C#N`: -15.1%; for `COC(=O)c1cc(OC)c(OC)cc1NC(=S)N1CCCC1`: 7.34%. In the case of `CCOC(=O)c1c(-c2ccc(Cl)cc2)cn2ccccc12` it was 9.97%; in that of `COc1ccccc1CC(=O)Nc1ccon1`, 7.85%; in that of `O=C(CCC(=O)N1CCN(Cc2ccc(F)cc2)CC1)Nc1nnc(C(F)(F)F)s1`, -26.2%. For `COc1ccc(OCCC(=O)OCC(=O)NCc2ccccc2)cc1`, the “hERG current change (%, negative = inhibition) at 10uM” value is 6.93%. The same measure for `O=C(CSc1nc2[nH]ncc2c(=O)[nH]1)Nc1ccc(OC(F)(F)F)cc1`: 15.3%. In the case of `Cc1ccc(-c2cc(C(=O)N/N=C/c3cccnc3)n[nH]2)o1` it was 15.2%; in that of `C/C(=N\NC(=O)CC#N)c1cc2ccc(O)cc2oc1=O`, 5.05%; in that of `COc1ccc(-c2noc(CN(Cc3nccn3C)C(C)C)n2)cc1`, -6.99%. In the case of `COc1cc([N+](=O)[O-])cc(/C=N\NC(=O)C2COc3ccccc3O2)c1O` (stereo not drawn) it was -1.68%; in that of `Cc1ccc(-c2ccc(=O)n(CC(=O)N3CCN(c4cccc(C)c4)C(C)C3)n2)cc1` (stereo not drawn), -32%. On to `Cc1cc(C(=O)NCc2ccco2)c2ccccc2n1`, for which the “hERG current change (%, negative = inhibition) at 10uM” value was 4.66%. With `Cc1cc(C(=O)N/N=C/c2ccc(N(C)C)o2)cs1`, the “hERG current change (%, negative = inhibition) at 10uM” value was -0.379%. In the case of `CC(=O)Nc1ccc(NC(=O)C(C)OC(=O)CNC(=O)c2sc3ccccc3c2Cl)cc1` (stereo not drawn) it was 18.6%; in that of `COc1ccc(C(=O)Nc2nnc(C3=COCCO3)o2)cc1`, 17.6%; in that of `N#CSCC(=O)c1cccc2ccccc12`, -24.8%. In the case of `Cc1nn(C)c(C)c1CCC(=O)NC1CC(C)(C)Cc2c1cnn2-c1ccccc1` (stereo not drawn) it was -28.1%; in that of `Cc1ccc(-c2csc3nc(C)n(-n4c(C)ccc4C)c(=O)c23)o1`, -3.01%.

In the case of `CCOc1ccc(C(=O)NNC(=O)c2cc(C)oc2C)cc1`, the “hERG current change (%, negative = inhibition) at 10uM” value came to 8.48%. In the case of `COc1cc(C(=O)N/N=C(\C)c2ccc(NC(=O)Cc3ccccc3)cc2)ccc1O` it was 13.6%; in that of `COC(=O)c1cc(Cl)c(NC(=O)C(C)C)cc1OC`, 9.39%. In the case of `CCCC(=O)N1CCN(c2ccc(NC(=O)c3cc4ccccc4o3)cc2Cl)CC1`, the “hERG current change (%, negative = inhibition) at 10uM” value was -56.8%. The same measure for `COc1ccc(-n2nnnc2SC(C)C(=O)NC2CCCC2)cc1` (stereo not drawn): 3.17%. In the case of `Cc1ccc(NC(=O)CCN2C(=O)OC(C)(C)C2(C)O)cc1` (stereo not drawn) it was 42.1%; in that of `Cc1ccc(CNC(=O)CSc2nc(=O)n3cccc(C)c3n2)cc1`, -17%; in that of `CC(C)C(NC(=O)c1c(F)cccc1F)C(=O)OCN1C(=O)c2ccccc2C1=O` (stereo not drawn), 13.1%.

Consider `COc1ccc(-n2c(=S)[nH]c3cc(C(=O)NCc4ccco4)ccc3c2=O)cc1OC`, for which the “hERG current change (%, negative = inhibition) at 10uM” value is 6.37%. In the case of `COC(=O)c1cccc(N2C(=O)C(Cl)=C(N3CCOCC3)C2=O)c1` it was -3.28%; in that of `COc1cc2nc(C3CC3)n(NC(=O)c3ccc(F)cc3)c(=O)c2cc1OC`, 2.87%. `CCN1CCN(CCCN(Cc2ccco2)C(=S)Nc2ccc(Cl)c(C)c2)CC1`: the “hERG current change (%, negative = inhibition) at 10uM” value is listed as -74.8%. The same measure for `Cc1cccnc1NC(=O)c1ccc([N+](=O)[O-])o1`: -3.22%; for `Cc1nnc(SC(C(=O)Nc2cc(Cl)cc(Cl)c2)c2ccccc2)[nH]c1=O` (stereo not drawn): 18.9%; for `CSc1ccc(/C=C(/NC(=O)c2ccccc2)C(=O)N2CCN(C)CC2)cc1`: -75.9%. For `CC1(C)C(=O)Nc2ccccc2N1C(=O)Cn1ncc(Cl)c(Cl)c1=O`, the “hERG current change (%, negative = inhibition) at 10uM” value is listed as 9.47%.

In the case of `ONC(=Nc1ccc(Cl)cc1)c1ccc(Cl)cc1`, the “hERG current change (%, negative = inhibition) at 10uM” value is reported as -3.93%.

`CN1C(=O)C2(c3ccccc31)N(C)CC(c1ccccc1)C21SC(=S)N(Cc2ccco2)C1=O` (stereo not drawn): the “hERG current change (%, negative = inhibition) at 10uM” value is 5.47%. The same measure for `O=C(NNC(=S)Nc1ccccc1Cl)c1ccccc1Br`: 23.6%; for `CCN(C(=O)Cn1nc(C)c([N+](=O)[O-])c1C)C1CCS(=O)(=O)C1` (stereo not drawn): 24.1%. In the case of `CCOC(=O)CSc1nnc(CNC(=O)c2ccc(OC)cc2OC)n1C`, the “hERG current change (%, negative = inhibition) at 10uM” value was -18.4%. In the case of `Cc1oc2c(C)c(O)ccc2c(=O)c1N1C(=O)c2ccccc2C1=O` it was -3.56%; in that of `O=[N+]([O-])c1cccc(NC(=S)N2CCOCC2)c1`, 25%; in that of `CN(CC(=O)Nc1c(Cl)cccc1Cl)C(=O)c1ccccc1SCC(=O)N1CCCC1`, 7.08%.

For `COC(=O)c1sc(NC(=O)/C=C/c2ccc(C)o2)nc1C`, the “hERG current change (%, negative = inhibition) at 10uM” value is reported as 19.9%. Turning to `O=C(NCc1ccc(Cl)c(Cl)c1)C1CCCC1`, the “hERG current change (%, negative = inhibition) at 10uM” value is on record as -1.13%. In the case of `Cc1ccc(-c2cc(-c3c(C)nn(C)c(=O)c3N)[nH]n2)cc1` it was 16.4%; in that of `O=C(CC1SC(=O)N(Cc2cccc3ccccc23)C1=O)Nc1nccs1` (stereo not drawn), 6.31%. For the compound `CCOC(=O)N1CCN(C(=O)c2ccccc2N(Cc2ccccc2)S(=O)(=O)c2ccc(OC)cc2)CC1`, the “hERG current change (%, negative = inhibition) at 10uM” value was -26.3%. In the case of `COc1cc(/C=N/NC(=O)c2ccc3c(c2)OCCO3)cc(Br)c1O`, the “hERG current change (%, negative = inhibition) at 10uM” value is listed as -12.2%. In the case of `Cc1nc2ccc(Nc3ccncc3)cc2s1` it was -16.6%. In the case of `CN1CCN(C2=C(Cl)C(=O)C(c3cnc(N4CCCCC4)s3)=C(Cl)C2=O)CC1` it was 6%; in that of `O=C(NCCC(=O)N1CCN(c2ncccn2)CC1)c1ccccc1Cl`, 6.64%.

As to `COc1ccc(C(=O)NC2CC2)cc1OC1CCN(Cc2ccc(F)cc2Cl)CC1`, the “hERG current change (%, negative = inhibition) at 10uM” value is -70.9%. The same measure for `Cc1ccc(S(=O)(=O)Cn2nnnc2C(C(C)C)N2CCN(c3nc4ccccc4s3)CC2)cc1` (stereo not drawn): 9.27%.

The record behind these values is paper PMC4336329 (PLoS ONE, 2015).
